{
  "source": "the supplement of paper PMC8728848",
  "assay_in_all_cases": "glycan array binding signal (z-score within array); higher = stronger binding",
  "details_in_all_cases": "glycan notation: IUPAC condensed, linker removed",
  "key": {"[1]": {"molecular_target": "Fuc(a1-3)[GalNAc(b1-4)]GlcNAc", "summary_of_the_method": "(§1)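 Glycan array data were curated from 3228 arrays in the Consortium for Functional Glycomics database and kept only where the protein sequence was available. Glycan names were converted to IUPAC-condensed notation, and columns mapping to the same glycan were averaged. The binding signal is a within-array Z-score, averaged across arrays of the same protein sequence at different concentrations or buffers and across linkers. Negative Z-scores can be read as non-binding.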"}, "[2]": {"molecular_target": "Fuc(a1-4)GlcNAc", "summary_of_the_method": "as §1"}, "[3]": {"molecular_target": "Fuc(b1-3)GlcNAc", "summary_of_the_method": "as §1"}, "[4]": {"molecular_target": "Gal(a1-2)Gal", "summary_of_the_method": "as §1"}, "[5]": {"molecular_target": "Gal(a1-3)Gal", "summary_of_the_method": "as §1"}, "[6]": {"molecular_target": "Gal(a1-3)Gal(b1-3)GlcNAc", "summary_of_the_method": "as §1"}, "[7]": {"molecular_target": "Gal(a1-3)Gal(b1-4)Glc", "summary_of_the_method": "as §1"}, "[8]": {"molecular_target": "Gal(a1-3)Gal(b1-4)GlcNAc", "summary_of_the_method": "as §1"}, "[9]": {"molecular_target": "Gal(a1-3)Gal(b1-4)[Fuc(a1-3)]GlcNAc", "summary_of_the_method": "as §1"}, "[10]": {"molecular_target": "Gal(a1-3)GalNAc", "summary_of_the_method": "as §1"}, "[11]": {"molecular_target": "Gal(a1-3)[Gal(a1-4)]Gal(b1-4)GlcNAc", "summary_of_the_method": "as §1"}, "[12]": {"molecular_target": "Gal(a1-4)Gal(b1-4)Glc", "summary_of_the_method": "as §1"}, "[13]": {"molecular_target": "Gal(a1-4)Gal(b1-4)GlcNAc", "summary_of_the_method": "as §1"}, "[14]": {"molecular_target": "Gal(a1-4)GlcNAc", "summary_of_the_method": "as §1"}, "[15]": {"molecular_target": "Gal(a1-6)Glc", "summary_of_the_method": "as §1"}, "[16]": {"molecular_target": "Gal(b1-2)Gal", "summary_of_the_method": "as §1"}, "[17]": {"molecular_target": "Gal(b1-3)Gal", "summary_of_the_method": "as §1"}, "[18]": {"molecular_target": "Gal(b1-3)Gal(b1-4)GlcNAc", "summary_of_the_method": "as §1"}, "[19]": {"molecular_target": "Gal(b1-3)GalNAc", "summary_of_the_method": "as §1"}, "[20]": {"molecular_target": "Gal(b1-3)GalNAc(b1-3)Gal(a1-4)Gal(b1-4)Glc", "summary_of_the_method": "as §1"}, "[21]": {"molecular_target": "Gal(b1-3)GalNAc(b1-4)Gal(b1-4)Glc", "summary_of_the_method": "as §1"}, "[22]": {"molecular_target": "Gal(b1-3)GalNAc(b1-4)[Neu5Ac(a2-3)]Gal(b1-4)Glc", "summary_of_the_method": "as §1"}, "[23]": {"molecular_target": "Gal(b1-3)GlcNAc", "summary_of_the_method": "as §1"}, "[24]": {"molecular_target": "Gal(b1-3)GlcNAc(b1-2)Man(a1-3)[Gal(b1-3)GlcNAc(b1-2)Man(a1-6)]Man(b1-4)GlcNAc(b1-4)GlcNAc", "summary_of_the_method": "as §1"}, "[25]": {"molecular_target": "Gal(b1-3)GlcNAc(b1-3)Gal(b1-3)GlcNAc", "summary_of_the_method": "as §1"}, "[26]": {"molecular_target": "Gal(b1-3)GlcNAc(b1-3)Gal(b1-4)Glc", "summary_of_the_method": "as §1"}, "[27]": {"molecular_target": "Gal(b1-3)GlcNAc(b1-3)Gal(b1-4)GlcNAc", "summary_of_the_method": "as §1"}, "[28]": {"molecular_target": "Gal(b1-3)[Fuc(a1-4)]GlcNAc", "summary_of_the_method": "as §1"}, "[29]": {"molecular_target": "Gal(b1-3)[Fuc(a1-4)]GlcNAc(b1-3)Gal(b1-3)[Fuc(a1-4)]GlcNAc", "summary_of_the_method": "as §1"}, "[30]": {"molecular_target": "Gal(b1-3)[Fuc(a1-4)]GlcNAc(b1-3)Gal(b1-4)GlcNAc", "summary_of_the_method": "as §1"}, "[31]": {"molecular_target": "Gal(b1-3)[Fuc(a1-4)]GlcNAc(b1-3)Gal(b1-4)[Fuc(a1-3)]GlcNAc", "summary_of_the_method": "as §1"}, "[32]": {"molecular_target": "Gal(b1-3)[GlcNAc(b1-6)]GalNAc", "summary_of_the_method": "as §1"}, "[33]": {"molecular_target": "Gal(b1-3)[Neu5Ac(a2-6)]GalNAc", "summary_of_the_method": "as §1"}, "[34]": {"molecular_target": "Gal(b1-3)[Neu5Ac(a2-6)]GlcNAc(b1-6)Gal(b1-4)Glc", "summary_of_the_method": "as §1"}, "[35]": {"molecular_target": "Gal(b1-3)[Neu5Ac(b2-6)]GalNAc", "summary_of_the_method": "as §1"}, "[36]": {"molecular_target": "Gal(b1-4)GalNAc(a1-3)[Fuc(a1-2)]Gal(b1-4)GlcNAc", "summary_of_the_method": "as §1"}, "[37]": {"molecular_target": "Gal(b1-4)GalNAc(b1-3)[Fuc(a1-2)]Gal(b1-4)GlcNAc", "summary_of_the_method": "as §1"}, "[38]": {"molecular_target": "Gal(b1-4)Glc", "summary_of_the_method": "as §1"}, "[39]": {"molecular_target": "Gal(b1-4)Glc6S", "summary_of_the_method": "as §1"}, "[40]": {"molecular_target": "Gal(b1-4)GlcNAc", "summary_of_the_method": "as §1"}, "[41]": {"molecular_target": "Gal(b1-4)GlcNAc(a1-6)Gal(b1-4)GlcNAc", "summary_of_the_method": "as §1"}, "[42]": {"molecular_target": "Gal(b1-4)GlcNAc(b1-2)Man(a1-3)[Gal(b1-4)GlcNAc(b1-2)Man(a1-6)]Man(b1-4)GlcNAc(b1-4)GlcNAc", "summary_of_the_method": "as §1"}, "[43]": {"molecular_target": "Gal(b1-4)GlcNAc(b1-3)Gal(b1-3)GlcNAc", "summary_of_the_method": "as §1"}, "[44]": {"molecular_target": "Gal(b1-4)GlcNAc(b1-3)Gal(b1-4)Glc", "summary_of_the_method": "as §1"}, "[45]": {"molecular_target": "Gal(b1-4)GlcNAc(b1-3)Gal(b1-4)GlcNAc", "summary_of_the_method": "as §1"}},
  "note": "Some of the results follow.",
  "data": [
    {"binder": "MIC1 (Toxoplasma gondii), O00834 (protein) MGQALFLTVLLPVLFGVGPEAYGEASHSHSPASGRYIQQMLDQRCQEIAAELCQSGLRKMCVPSSRIVARNAVGITHQNTLQWRCFDTASLLESNQENNGVNCVDDCGHTIPCPGGVHRQNSNHATRHEILSKLVEEGVQRFCSPYQASANKYCNDKFPGTIARRSKGFGNNVEVAWRCYEKASLLYSVYAECASNCGTTWYCPGGRRGTSTELDKRHYTEEEGIRQAIGSVDSPCSEVEVCLPKDENPPLCLDESGQISRTGGGPPSQPPEMQQPADRSDERGGGKEQSPGGEAQPDHPTKGGNIDLPEKSTSPEKTPKTEIHGDSTKATLEEGQQLTLTFISTKLDVAVGSCHSLVANFLDGFLKFQTGSNSAFDVVEVEEPAGPAVLTIGLGHKGRLAVVLDYTRLNAALGSAAYVVEDSGCSSSEEVSFQGVGSGATLVVTTLGESPTAVSA", "values": [
      {"measurement": "glycan array binding signal (z-score)", "setting": "[1]", "value": -0.242},
      {"measurement": "glycan array binding signal (z-score)", "setting": "[2]", "value": -0.218},
      {"measurement": "glycan array binding signal (z-score)", "setting": "[3]", "value": -0.217},
      {"measurement": "glycan array binding signal (z-score)", "setting": "[4]", "value": -0.026},
      {"measurement": "glycan array binding signal (z-score)", "setting": "[5]", "value": -0.233},
      {"measurement": "glycan array binding signal (z-score)", "setting": "[6]", "value": -0.059},
      {"measurement": "glycan array binding signal (z-score)", "setting": "[7]", "value": 0.073},
      {"measurement": "glycan array binding signal (z-score)", "setting": "[8]", "value": -0.241},
      {"measurement": "glycan array binding signal (z-score)", "setting": "[9]", "value": -0.014},
      {"measurement": "glycan array binding signal (z-score)", "setting": "[10]", "value": -0.139},
      {"measurement": "glycan array binding signal (z-score)", "setting": "[11]", "value": 0.113},
      {"measurement": "glycan array binding signal (z-score)", "setting": "[12]", "value": -0.07},
      {"measurement": "glycan array binding signal (z-score)", "setting": "[13]", "value": -0.115},
      {"measurement": "glycan array binding signal (z-score)", "setting": "[14]", "value": -0.126},
      {"measurement": "glycan array binding signal (z-score)", "setting": "[15]", "value": -0.151},
      {"measurement": "glycan array binding signal (z-score)", "setting": "[16]", "value": -0.324},
      {"measurement": "glycan array binding signal (z-score)", "setting": "[17]", "value": -0.271},
      {"measurement": "glycan array binding signal (z-score)", "setting": "[18]", "value": -0.271},
      {"measurement": "glycan array binding signal (z-score)", "setting": "[19]", "value": 0.028},
      {"measurement": "glycan array binding signal (z-score)", "setting": "[20]", "value": -0.25},
      {"measurement": "glycan array binding signal (z-score)", "setting": "[21]", "value": 0.043},
      {"measurement": "glycan array binding signal (z-score)", "setting": "[22]", "value": -0.14},
      {"measurement": "glycan array binding signal (z-score)", "setting": "[23]", "value": 0.051},
      {"measurement": "glycan array binding signal (z-score)", "setting": "[24]", "value": 0.008},
      {"measurement": "glycan array binding signal (z-score)", "setting": "[25]", "value": -0.247},
      {"measurement": "glycan array binding signal (z-score)", "setting": "[26]", "value": -0.292},
      {"measurement": "glycan array binding signal (z-score)", "setting": "[27]", "value": -0.317},
      {"measurement": "glycan array binding signal (z-score)", "setting": "[28]", "value": -0.154},
      {"measurement": "glycan array binding signal (z-score)", "setting": "[29]", "value": -0.194},
      {"measurement": "glycan array binding signal (z-score)", "setting": "[30]", "value": -0.219},
      {"measurement": "glycan array binding signal (z-score)", "setting": "[31]", "value": 0},
      {"measurement": "glycan array binding signal (z-score)", "setting": "[32]", "value": -0.288},
      {"measurement": "glycan array binding signal (z-score)", "setting": "[33]", "value": -0.024},
      {"measurement": "glycan array binding signal (z-score)", "setting": "[34]", "value": -0.095},
      {"measurement": "glycan array binding signal (z-score)", "setting": "[35]", "value": -0.255},
      {"measurement": "glycan array binding signal (z-score)", "setting": "[36]", "value": -0.051},
      {"measurement": "glycan array binding signal (z-score)", "setting": "[37]", "value": -0.009},
      {"measurement": "glycan array binding signal (z-score)", "setting": "[38]", "value": -0.087},
      {"measurement": "glycan array binding signal (z-score)", "setting": "[39]", "value": -0.074},
      {"measurement": "glycan array binding signal (z-score)", "setting": "[40]", "value": -0.165},
      {"measurement": "glycan array binding signal (z-score)", "setting": "[41]", "value": -0.135},
      {"measurement": "glycan array binding signal (z-score)", "setting": "[42]", "value": -0.202},
      {"measurement": "glycan array binding signal (z-score)", "setting": "[43]", "value": -0.363},
      {"measurement": "glycan array binding signal (z-score)", "setting": "[44]", "value": -0.223},
      {"measurement": "glycan array binding signal (z-score)", "setting": "[45]", "value": -0.327}
    ]}
  ]
}
